Among all 1,300 compounds or so, about 25 (2%) were called active. Another 9% or so got no clear call; they are omitted. Calls follow the shape of the dose curve; as a rule, active = well fitted activation curve with a large enough effect; inconclusive = small, poorly fitted or top-dose-only effect; inactive = flat fitted curve, though single readings scatter. Some of the results follow.
Each compound was assayed against Glucagon-like peptide 1 receptor (Homo sapiens) (UniProt P43220) (assay: qHTS of GLP-1 Receptor Agonists: Hit Validation). Settings: HEK293 GLP-1R, cAMP-response luciferase, 4-6 h; series mostly up to 46.1 µM; activation: at the top concentration.
UniProt P43220, sequence (P43220 whole entry, looked up): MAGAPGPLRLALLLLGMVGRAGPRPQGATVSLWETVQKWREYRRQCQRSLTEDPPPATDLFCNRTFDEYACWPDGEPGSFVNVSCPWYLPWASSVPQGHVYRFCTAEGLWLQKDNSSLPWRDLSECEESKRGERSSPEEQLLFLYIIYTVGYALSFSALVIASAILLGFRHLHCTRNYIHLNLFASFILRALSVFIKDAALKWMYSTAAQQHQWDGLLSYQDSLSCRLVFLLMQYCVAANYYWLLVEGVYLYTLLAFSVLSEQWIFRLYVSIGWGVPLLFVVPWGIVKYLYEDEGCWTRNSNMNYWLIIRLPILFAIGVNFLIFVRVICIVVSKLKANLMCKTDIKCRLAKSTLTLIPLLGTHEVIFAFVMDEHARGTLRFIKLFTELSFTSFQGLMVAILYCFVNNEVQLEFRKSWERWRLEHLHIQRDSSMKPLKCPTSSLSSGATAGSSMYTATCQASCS
How it was run: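 Luminescence from a cAMP-responsive luciferase reporter was read 12 min after detection reagent at RT. Before that, HEK293 cells stably expressing GLP-1R plus reporter, seeded 12 h earlier, were exposed to compound for 4-6 hr at 37 deg C.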
Also: % of control where 0% means no effect.

Compound	activation
O=c1cc(N2CCCCC2)nc2n1CCCS2	inactive: -0.517%
CCOC(=O)c1c(C)[nH]c(C(=O)N2CCc3cc(OC)c(OC)cc3C2)c1C	inactive: 7.6%
CC(C)c1nc(Cl)c(C#N)c2c1COC(C)(C)C2	inactive: 18%
O=C(CCCCn1c(=O)c2ccccc2n(Cc2ccc(F)cc2Cl)c1=O)NCc1ccco1	inactive: 3.66%
COc1ccc(N2CCN(C(=O)CSc3ccccc3)CC2)cc1	inactive: 24.8%
CCC(=O)N1CCc2cc(OC)c(OC)cc2C1COc1ccc(OC)cc1 (stereo not drawn)	inactive: 5.06%
COc1cccc(CNC(=O)c2cccnc2Sc2ccccc2)c1	inactive: -0.259%
Cn1c(=N)n(CC(=O)C(C)(C)C)c2ccccc21	inactive: 1.55%
C=CCSc1cc(C)nc2c(-c3ccccc3)c(C)nn12	inactive: 8%
CC(=O)Nc1ccc(NC(=O)c2cc(C3CC3)nc3c2cnn3C(C)C)cc1	inactive: 2.18%
CC(=O)c1cccc(S(=O)(=O)N2CCCC(c3nc(-c4ccc(C)o4)no3)C2)c1 (stereo not drawn)	inactive: 2.03%
COc1ccc(/C=C2\SC(N3CCCCC3)=NC2=O)cc1OC	inactive: 24.1%
O=C(CCCCCNC(=O)c1ccccc1)N/N=C/c1ccccc1	inactive: -0.75%
OC(CNCc1cccc(Br)c1)c1ccccc1 (stereo not drawn)	inactive: 11.8%
CCN=c1scc(-c2cccs2)n1/N=C/c1cc(OC)ccc1O	inactive: 2.73%
CCOc1ncccc1C(=O)OCc1ccc(C(=O)OC)cc1	inactive: 18.9%
CCS(=O)(=O)n1nc(-c2cccnc2)nc1NCc1ccc(F)cc1	inactive: -0.385%
c1ccc(-c2ccccc2-c2nc(-c3cccnc3)no2)cc1	inactive: 5.05%
Cc1nc(C)c(-c2ccc(SCC(=O)Nc3cccc(Cl)c3C)nn2)s1	inactive: 27.2%
COc1ccc(C2=NN(C(=O)c3ccco3)C(c3ccco3)C2)cc1OC (stereo not drawn)	inactive: 17.5%

Compound	activation
Cc1nn2c(COc3ccc(NC(=O)C(C)C)cc3)nnc2c2ccccc12	inactive: 10.4%
O=C(Nc1cccc(Cl)c1)N1CCN(c2ncccn2)CC1	inactive: -0.889%
Cn1c(=Nc2ccccc2)sc2ccccc21	inactive: 7.22%
COc1ccc(-c2ccc(=O)n(CC(=O)Nc3cccc(O)c3)n2)cc1OC	inactive: 25.3%
O=C(Nc1cccc(OC(F)(F)F)c1)c1ccc(-c2cccnc2)c2ccoc12	inactive: 9.25%
c1ccc2c(N3CCCC3)nc(-c3ccncc3)nc2c1	inactive: 7.12%
COc1cc2c(cc1OC)/C(=C/C(=O)c1ccc(NC(C)=O)cc1)NCC2	inactive: 29.3%
CCc1cc2c(-c3ccccc3)cc(=O)oc2c(CN2CCOCC2)c1O	inactive: 4.04%
O=C(/C=C/c1ccc([N+](=O)[O-])cc1)NCCOc1ccc(F)cc1	inactive: -0.0506%
O=C(O)CN1C(=O)/C(=C\c2cccc(OCc3ccccc3F)c2)SC1=S	inactive: -0.325%
COc1ccc(OC)c(C(=O)Nc2c(O)ccc3ccccc23)c1	inactive: 3.74%
COc1ccc(Nc2nc(N)nc(CSC(=S)N3CCCCC3C)n2)cc1 (stereo not drawn)	inactive: 6.7%
O=C1NC(c2cccc3ccccc23)Nc2ccccc21 (stereo not drawn)	inactive: 6.2%
COC(=O)c1ccc(COC(=O)c2ccc(SC)cc2OC)cc1	inactive: 3.19%
CCc1cc2c(CN3CCN(Cc4ccccc4)CC3)cc(=O)oc2cc1O	inactive: -1.22%
CCN(CC)S(=O)(=O)c1cc(NC(=O)c2ccccc2OCc2c(C)noc2C)ccc1C	inactive: 1.93%
COc1ccc(S(=O)(=O)N(C)C)cc1NC(=O)c1ccc(OCC(=O)N2CCOCC2)c(OC)c1	inactive: 0.301%
CCn1c(SCC(=O)OC)nc2sc3c(c2c1=O)CC(C)(C)OC3	inactive: 6.2%
CCC1(CC)Cc2ccccc2-c2nc(CN(C)C)[nH]c(=O)c21	inactive: 2.97%
CCOC(=O)CN1C(=O)S/C(=C/c2ccc(OCc3ccc(C(=O)O)cc3)cc2)C1=O	inactive: -1.18%

Compound	activation
Cc1nn(Cc2ccccc2)c(Cl)c1C(=O)OC(C)C#N (stereo not drawn)	inactive: 6.68%
Cc1c(C)n(Cc2ccccc2)c2ccc(C(=O)OCCCN(C)C)cc12	inactive: 8.23%
COC(=O)C(CN)c1c[nH]c2ccc(OC)cc12 (stereo not drawn)	inactive: 2.04%
Cc1csc(NC(=O)CCN2C(=O)c3ccccc3S2(=O)=O)n1	inactive: -0.742%
CC(NC(=O)CN1C(=O)COc2ccccc21)c1ccccc1 (stereo not drawn)	inactive: 22.2%
CC(C)Nc1nc(Nc2ccccc2Cl)c2sccc2n1	inactive: 5.71%
Nc1nc(NCCCN2CCOCC2)nc(Nc2cccc(Cl)c2)c1[N+](=O)[O-]	inactive: 4.41%
O=C(/C=C\c1ccc(-c2cccc([N+](=O)[O-])c2)o1)N1CCOCC1	inactive: 14.4%
Cc1ccc(C)c(Nc2c([N+](=O)[O-])ccc3nonc23)c1	inactive: 23.3%
CCOC(=O)c1c(-c2ccc(F)cc2)csc1/N=C/N(C)C	inactive: -0.16%
O=c1c2ccccc2oc2cc(NCCCN3CCOCC3)ccc12	inactive: 2.1%
C=Cc1ccc(Cn2nc(-c3ccc(C)cc3)ccc2=O)cc1	inactive: 6.93%
CCCCNc1c(-c2ccc(SC(C)CC)cc2)nc2ccc(Cl)cn12 (stereo not drawn)	inactive: 0.404%
Nc1ncnc2c1ncn2[C@@H]1O[C@H](COP(=O)(O)OP(=O)(O)OP(=O)(O)O)[C@@H](O)[C@H]1O	inactive: -0.704%
CSc1nc(C)c2c(n1)N(c1ccc(O)cc1)CC2	inactive: 4.44%
N#CC(c1ccncc1)(c1ncc(C(F)(F)F)cc1Cl)N1CCOCC1 (stereo not drawn)	inactive: 1.91%
c1ccc2c(c1)CCN(c1nc3ccccc3n3cnnc13)C2	inactive: 15%
CC1CCCc2sc3nc(NCc4ccco4)n4ncnc4c3c21 (stereo not drawn)	inactive: 26%

Reference: PubChem BioAssay AID743262 (National Center for Advancing Translational Sciences (NCATS), 2014)
